Experimental data from PubChem BioAssay AID624417 (National Center for Advancing Translational Sciences (NCATS), 2012).
Screen size: about 410,000 compounds; about 6,400 (1.6%) were called active. The inconclusive results got no clear call from the source; some entries with a clear call stand among them for comparison. Calls follow the shape of the dose curve; as a rule, active = well fitted inhibition curve with a large enough effect; inconclusive = small, poorly fitted or top-dose-only effect; inactive = no such curve, though single readings can be large or run the other way. No potency is given beside an inconclusive call; the fits are too rough.

The compounds below were run against Glucagon-like peptide 1 receptor (Homo sapiens) (UniProt P43220) (assay: qHTS of GLP-1 Receptor Inverse Agonists (Inhibition Mode)). Conditions: HEK293 GLP-1R CRE-luciferase, luminescence, 24 h, GLP-1R form is constitutively active; series mostly up to 38.3 µM.
How it was run: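 Stable HEK293 clone (constitutively active GLP-1R + cAMP-response luciferase); 200 cells/uL plated, 12 h pre-culture, compound 24 hr, 37 deg C/5% CO2; detection reagent 12 min RT; luminescence.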
Also: nearly all actives have a fitted effect of over 55% in size.
Potency is read from the fitted curve at half-maximal effect; tags tell the direction and shape of the fitted curve.

UniProt P43220, sequence (P43220 whole entry, looked up): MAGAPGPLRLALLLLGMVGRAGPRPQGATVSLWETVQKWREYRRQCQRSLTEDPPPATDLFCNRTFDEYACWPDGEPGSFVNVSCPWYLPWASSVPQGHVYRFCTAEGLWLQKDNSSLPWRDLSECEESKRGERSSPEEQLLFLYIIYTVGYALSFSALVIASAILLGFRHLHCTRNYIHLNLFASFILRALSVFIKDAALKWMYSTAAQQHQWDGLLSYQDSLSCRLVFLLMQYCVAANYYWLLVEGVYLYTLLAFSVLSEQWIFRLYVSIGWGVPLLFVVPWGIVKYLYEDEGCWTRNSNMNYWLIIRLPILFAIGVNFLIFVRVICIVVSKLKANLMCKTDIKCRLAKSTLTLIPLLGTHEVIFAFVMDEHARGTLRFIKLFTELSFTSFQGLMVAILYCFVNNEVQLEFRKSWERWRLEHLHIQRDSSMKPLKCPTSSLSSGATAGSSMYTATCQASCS

Row | Structure (SMILES) | Potency
1 | CCOc1ccc(NC(=O)N(Cc2cn(CC)c3ccccc23)C2CCCCCC2)cc1 | active: 11.2 µM
2 | COC(=O)c1c(NC(=O)CS(=O)(=O)c2ccccc2)sc(C)c1C | inconclusive [inhibitor, single point]
3 | COc1ccc(S(=O)(=O)c2c(Nc3ccc(C)cc3C)sc(C(=O)c3ccc(F)cc3)c2N)cc1 | inconclusive [inhibitor, full curve]
4 | Cc1cc(C(=O)N2CCN(c3cccc(Cl)c3)CC2)c2c(C)nn(-c3ccccc3Cl)c2n1 | inconclusive [inhibitor, single point]
5 | CC12CCC(C(=O)N3CCc4ccccc43)(CC1=O)C2(C)C (stereo unspecified) | active: 12.6 µM
6 | CN(CC(=O)Nc1ccc(C#N)cc1)Cc1ccc(Cl)c(Cl)c1 | inconclusive [inhibitor, single point]
7 | CC(C)NC(=O)CN(Cc1ccc(F)cc1)C(=O)CCC(=O)Nc1ccccn1 | inactive
8 | COc1ccccc1NC(=O)Nc1ccccc1SC | inconclusive [inhibitor, partial curve, poor fit]
9 | CC(C)CC(=O)N1CCN(Cc2ccc(Cl)cc2)CC1 | inconclusive [inhibitor, single point]
10 | O=C1CSC(c2ccc(F)cc2)N1c1nc2ccccc2s1 (stereo unspecified) | inconclusive [inhibitor, single point]
11 | Oc1cc2ccccc2cc1-c1n[nH]c(=S)n1Cc1ccco1 | inconclusive [inhibitor, single point]
12 | CN(C)S(=O)(=O)c1ccc(C(=O)Nc2ccc(Cl)cc2)cc1 | inconclusive [inhibitor, single point]
13 | Cc1noc(C)c1S(=O)(=O)N(CC(=O)N1CCn2c1nc1ccccc12)c1ccc(C(C)C)cc1 | inconclusive [inhibitor, single point]
14 | Cc1ccc(S(=O)(=O)N2CCCC2CNC(=O)c2ccccc2)cc1 (stereo unspecified) | inconclusive [inhibitor, partial curve, poor fit]
15 | COc1cccc(CNC(=O)CCCn2ccc3cc(S(=O)(=O)N4CCCC4)ccc32)c1 | inconclusive [inhibitor, partial curve, poor fit]
16 | CCOC(=O)c1ccc(N2CCN(c3ccccc3OC)CC2)c(NC(=O)Nc2ccc(CC)cc2)c1 | inactive
17 | CC(C)CCNc1nc(N)c([N+](=O)[O-])c(N2CCCCCC2)n1 | inconclusive [inhibitor, single point]
18 | CC(=O)NCCOC(=O)Nc1ccncc1 | inconclusive [inhibitor, single point]
19 | Cc1ccc(C(C)(C)NC(=O)C2CCC(=O)N(CC3CCCCC3)C2)cc1 (stereo unspecified) | inconclusive [inhibitor, partial curve, poor fit]
20 | COCCNC(=O)c1ccc(CSc2nc3ccccc3s2)cc1 | inconclusive [inhibitor, single point]
21 | COc1ccc(NC(=O)NCC(C)CSc2ccc(C)cc2)c(OC)c1 (stereo unspecified) | inconclusive [inhibitor, partial curve, poor fit]

Row | Structure (SMILES) | Potency
22 | Cc1cccc(C(=O)NC2CC3CCCC(C2)N3S(=O)(=O)c2ccccc2)c1 (stereo unspecified) | inconclusive [inhibitor, partial curve, poor fit]
23 | CC(C)CCNC(=O)C1CCCN(S(=O)(=O)c2ccc(F)cc2)C1 (stereo unspecified) | inconclusive [inhibitor, partial curve, poor fit]
24 | COc1ccccc1NS(=O)(=O)c1ccc2c(c1)NC(=O)C(C)S2 (stereo unspecified) | inconclusive [inhibitor, single point]
25 | CCCN(CC(=O)Nc1cc(Cl)ccc1Cl)C(=O)/C=C/c1ccco1 | inconclusive [inhibitor, single point]
26 | COc1ccc(NC(=O)CN(C)CC(=O)Nc2ccc3c(c2)CCC3)cc1 | inconclusive [inhibitor, single point]
27 | CC(C)N(C(=O)c1nn(C)c2c1CSc1ccccc1-2)C1CCCCC1 | active: 10 µM
28 | COC(=O)[C@@]12C[C@@H](CC(=O)N3CCCC3)C(=O)N(Cc3ccc4c(c3)OCO4)C1=CCC(C)(C)C2 | inconclusive [inhibitor, partial curve, poor fit]
29 | O=S(=O)(NC1c2cccc3cccc(c23)C1N1CCNCC1)c1ccc(Cl)cc1 (stereo unspecified) | inconclusive [inhibitor, partial curve, poor fit]
30 | COC(=O)[C@@]12CCCCN1[C@H](c1ccc(-c3cccc(Cl)c3)cc1)[C@@H]1C(=O)N(C)C(=O)[C@@H]12 | inconclusive [inhibitor, partial curve, poor fit]
31 | C/C(=N\NC(=S)NCc1ccccc1)c1cccs1 | inconclusive [inhibitor, partial curve, poor fit]
32 | CCOc1c(Br)cc(/C=N\NC(=O)c2ccccc2)cc1OC | inconclusive [inhibitor, partial curve, poor fit]
33 | OC(CNCCc1ccc(C(F)(F)F)cc1)COc1cccc2ccccc12 (stereo unspecified) | inconclusive [inhibitor, partial curve, poor fit]
34 | COc1ccc(C(CNC(=O)Cc2c(F)cccc2Cl)N2CCCCC2)cc1 (stereo unspecified) | inactive
35 | CC1CCC2(CC1)NC(=O)N(Cc1cccc(C(F)(F)F)c1)C2=O (stereo unspecified) | active: 2.24 µM
36 | CC1(C)Cc2c(cnn2-c2cccc(F)c2)C(NC(=O)CSc2ccccn2)C1 (stereo unspecified) | inconclusive [inhibitor, single point]
37 | O=C(CN1CCCCC1)Nc1ccc(N2CCCCCC2)cc1 | inconclusive [inhibitor, partial curve, poor fit]
38 | COc1ccc(CNC(=O)C2CCN(S(=O)(=O)N3CCCCC3)CC2)cc1 | inconclusive [inhibitor, full curve]
39 | COc1ccc2ccccc2c1/C=N/NC(=O)c1cccc(Br)c1 | inconclusive [inhibitor, single point]
40 | COc1ccccc1NS(=O)(=O)c1cc(C(=O)NC2CC(C)(C)NC(C)(C)C2)ccc1Cl | inconclusive [inhibitor, single point]
41 | COc1ccc(N2CCN(C(=O)CCC(=O)N3CCOc4ccc(C)cc43)CC2)cc1 | inconclusive [inhibitor, partial curve, poor fit]
42 | CN(CCCNC(=O)c1ccc(CS(=O)c2ccc(Br)cc2)o1)Cc1ccccc1 (stereo unspecified) | inconclusive [inhibitor, partial curve, poor fit]

Row | Structure (SMILES) | Potency
43 | Cc1ccc(-c2nc(N3CCN(C)CC3)c3ccccc3n2)cc1 | inconclusive [inhibitor, partial curve, poor fit]
44 | Cc1cc(C)cc(NS(=O)(=O)c2cnc(Cl)c(Cl)c2)c1 | inconclusive [inhibitor, single point]
45 | CC(=O)/C(=N/Nc1ccccc1C)N1CCOCC1 | inconclusive [inhibitor, partial curve]
46 | CCc1nc2ccccc2n1CCCCOc1cccc(C)c1 | inconclusive [inhibitor, single point]
47 | COc1ccc(-c2nc(CSCC(=O)NC3CCCc4ccccc43)c(C)o2)cc1OC (stereo unspecified) | inconclusive [inhibitor, single point]
48 | COc1cc(C(C)=O)ccc1OCC(O)CN1CCN(c2ccc(C)c(C)c2)CC1 (stereo unspecified) | inactive
49 | COc1ccc(C(c2nnnn2Cc2cccs2)N2CCN(c3ccccc3F)CC2)cc1 (stereo unspecified) | inconclusive [inhibitor, single point]
50 | CCN(CC(=O)NCc1ccc(F)cc1)C(=O)c1oc2ccccc2c1C | inconclusive [inhibitor, single point]
51 | CCOC(=O)c1cc(-c2ccccc2)n(CCCC(=O)Nc2cccc(C)c2)c1C | inconclusive [inhibitor, partial curve, poor fit]
52 | O=C(Nc1cccc([N+](=O)[O-])c1)Nc1cccs1 | inconclusive [inhibitor, single point]
53 | CC(C)C[C@H]1CN([C@@H](CC(C)C)CN2CCC[C@@H]2CN2C(=S)NC[C@@H]2Cc2ccc(O)cc2)C(=S)N1CCc1ccccc1 | inconclusive [inhibitor, single point]
54 | COc1cc(OC)cc(C(=O)NC(C)CNc2ccc(Cl)cc2[N+](=O)[O-])c1 (stereo unspecified) | inconclusive [inhibitor, partial curve]
55 | CCCN1CCN(C(=O)C(C)n2nc(C)c3sc4ccccc4c3c2=O)CC1 (stereo unspecified) | inconclusive [inhibitor, single point]
56 | Clc1ccc(CN2CCc3nc(N4CCN(c5ccccn5)CC4)ncc3C2)cc1 | inconclusive [inhibitor, partial curve]
57 | CCOc1ccccc1NC(=O)Nc1ccc2c(c1)CCC2 | active: 10 µM
58 | CCN(CC)C(=O)N1CCN(S(=O)(=O)c2c(C)cc(C)cc2C)CC1 | inconclusive [inhibitor, full curve, poor fit]
59 | Oc1ccc(-c2ccccc2)cc1CN1CCCCCC1 | inconclusive [inhibitor, single point]
60 | CN(NS(=O)(=O)c1cccs1)c1ncc(C(F)(F)F)cc1Cl | inconclusive [inhibitor, partial curve, poor fit]
61 | COc1cccc(NS(=O)(=O)c2ccc3c(c2)NC(=O)C(C)S3)c1 (stereo unspecified) | inactive
